Test results as given in PubChem BioAssay (Tox21).
Where “and” joins values, the source holds several entries; their conditions need not be identical. Identical values can stand only once. The inconclusive results got no clear call from the source; some entries with a clear call stand among them for comparison. For some assays here: Where the call is inconclusive, the potency comes from a doubtful curve fit. A structure can be active in one record and inactive in another. Calls of active or inactive are those of the source. Unless noted, calls come from the whole dose curve; as a rule, active = well fitted curve in the direction sought with a large enough effect in the repeat runs; inconclusive = weak or mixed curves; inactive = no such curve, though single readings can be large; an effect the other way counts as inactive or inconclusive.

How the values were obtained:
[1] = qHTS assay to identify small molecule antagonists of the peroxisome proliferator-activated receptor gamma (PPARg) signaling pathway - cell viability counter screen (AID 743194); conditions: PPARg-bla HEK293H viability, CellTiter-Glo luminescence, 17 h, co-treated with 50 nM rosiglitazone; activity change, negative = cytotoxicity: at 62.6 µM (top of the series) unless noted; note: potency is the fitted concentration of half-maximal effect; nearly all actives have a fitted effect of over 55% in size
Outline: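 Viability was measured as CellTiter-Glo luminescence in GeneBLAzer PPARg UAS-bla HEK293H cells. These cells had been exposed 17 h at 37 C to compounds together with rosiglitazone at 50 nM final, with the beta-lactamase readout taken in the same wells.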

[2] = qHTS assay for small molecule activators of the heat shock response signaling pathway (AID 743210; active = well fitted activation curve with a large enough effect in the signal ratio in the repeat runs, with a control signal flat, not every such curve was filed as active; inconclusive = weak or mixed curves; the % refers to the signal ratio; note: potency is the fitted concentration of half-maximal effect); conditions: HeLa HSE-bla reporter, beta-lactamase ratio, 5 h; activation: at 62.6 µM (top of the series)
Outline: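 In HSE-bla HeLa cells, 5 h compound incubation (37 C) precedes addition of LiveBLAzer B/G substrate; after 2.5 h at room temperature, fluorescence intensity indicates reporter induction.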

[3] = qHTS assay to identify small molecule agonists of the peroxisome proliferator-activated receptor delta (PPARd) signaling pathway - cell viability counter screen (AID 743211); conditions: PPARd-bla HEK293H viability, CellTiter-Glo luminescence, 17 h; activity change, negative = cytotoxicity: at 62.6 µM (top of the series); note: potency is the fitted concentration of half-maximal effect; nearly all actives have a fitted effect of over 55% in size
Outline: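 Viability was measured as CellTiter-Glo luminescence (30 min, room temperature) in the same wells as the beta-lactamase readout. GeneBLAzer PPARd UAS-bla HEK293H cells received compound after 5 h plating and were incubated 17 h at 37 C.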

[4] = biological target: Peroxisome proliferator-activated receptor delta (Homo sapiens) (UniProt Q03181); assay: qHTS assay to identify small molecule agonists of the peroxisome proliferator-activated receptor delta (PPARd) signaling pathway (AID 743212; calls by dose curve; note: potency is the fitted concentration of half-maximal effect; for activation: % is set by controls: 0 for no effect and ±100 for the full control effect); conditions: HEK293H PPARd-UAS-bla, beta-lactamase FRET ratio, 17 h; activation: at 62.6 µM (top of the series) unless noted
Outline: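 HEK293H UAS-bla reporter cells, human PPARd system; compounds delivered in DMSO after 5 h plating, then at 37 C. Beta-lactamase FRET read, 2 h RT substrate step.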

[5] = biological target: Peroxisome proliferator-activated receptor delta (Homo sapiens) (UniProt Q03181); assay: qHTS assay to identify small molecule antagonists of the peroxisome proliferator-activated receptor delta (PPARd) signaling pathway (AID 743215; active = well fitted inhibition curve with a large enough effect in the signal ratio in the repeat runs, not every such curve was filed as active; inconclusive = weak or mixed curves, or effect the other way; inactive = no such curve, though single readings can be large or run the other way; the % refers to the signal ratio;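 note: cells stimulated with agonist L165041 at 300 nM final during compound exposure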; note: potency is the fitted concentration of half-maximal effect); conditions: HEK293H PPARd-UAS-bla, beta-lactamase FRET ratio, antagonist, 17 h; ratio activity, negative = inhibition: at 62 µM (top of the series) unless noted
Outline: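 PPARd UAS-bla HEK293H cells were pre-incubated 5 h at 37 C, then given test compounds in DMSO plus agonist L165041 (300 nM final). After 17 h at 37 C, beta-lactamase FRET substrate was added; fluorescence read after 2 h at room temperature.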

[6] = qHTS assay to identify small molecule agonists of the farnesoid-X-receptor (FXR) signaling pathway - cell viability counter screen (AID 743218); conditions: FXR-bla HEK293T viability, CellTiter-Glo luminescence, 16 h; viability change, negative = cytotoxic: at 62.6 µM (top of the series) unless noted; note: potency is the fitted concentration of half-maximal effect; nearly all actives have a fitted effect of over 45% in size
Outline: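 FXR-UAS-bla HEK 293T cells, plated 5 h at 37 C, were exposed to compounds for 16 h at 37 C. CellTiter-Glo was then added to the same wells as the bla readout; luminescence read after 30 min at room temperature.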

[7] = biological target: Bile acid receptor (Homo sapiens) (UniProt Q96RI1); assay: qHTS assay to identify small molecule agonists of the farnesoid-X-receptor (FXR) signaling pathway (AID 743220; active = well fitted activation curve with a large enough effect in the signal ratio in the repeat runs, not every such curve was filed as active; inconclusive = weak or mixed curves, or effect the other way; the % refers to the signal ratio; note: % is set by controls: 0 for no effect and ±100 for the full control effect); conditions: HEK293T FXR-UAS-bla, beta-lactamase FRET ratio, 16 h
Outline: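 Beta-lactamase reporter under UAS control in GeneBLAzer FXR HEK 293T cells (5000/well) measured with LiveBLAzer FRET substrate after 2 h at room temperature. Compound exposure lasted 16 h at 37C.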

[8] = qHTS assay to identify small molecule antagonists of the farnesoid-X-receptor (FXR) signaling pathway - cell viability counter screen (AID 743221; active = well fitted cell-killing curve with a large enough effect in the repeat runs, not every such curve was filed as active; inconclusive = weak or mixed curves, or effect the other way; inactive = no such curve, though single readings can be large or run the other way; note: potency is the fitted concentration of half-maximal effect; nearly all actives have a fitted effect of over 50% in size); conditions: FXR-bla HEK293T viability, CellTiter-Glo luminescence, 16 h; activity change, negative = cytotoxicity: at 62.6 µM (top of the series)
Outline: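 Cytotoxicity counter screen run in the FXR-bla reporter wells: HEK 293T cells exposed to compound with 50 uM (final) chenodeoxycholic acid for 16 h, 37 C, then viability measured by CellTiter-Glo luminescence after 30 min, room temperature.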

[9] = qHTS assay to identify small molecule agonists of the vitamin D receptor (VDR) signaling pathway - cell viability counter screen (AID 743224); conditions: VDR-bla HEK293T viability, CellTiter-Glo luminescence, 16 h; activity change, negative = cytotoxicity: at 62.6 µM (top of the series) unless noted; note: potency is the fitted concentration of half-maximal effect; nearly all actives have a fitted effect of over 50% in size
Outline: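 VDR-bla cells were preincubated 4 h at 37C/5% CO2, then exposed to compounds for 16 h. After the 2 h room-temperature bla FRET read, CellTiter-Glo was added to the same wells and luminescence read after 30 min.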

[10] = qHTS assay to identify small molecule antagonists of the peroxisome proliferator-activated receptor delta (PPARd) signaling pathway - cell viability counter screen (AID 743213); conditions: PPARd-bla HEK293H viability, CellTiter-Glo luminescence, 17 h; viability change, negative = cytotoxic: at 62 µM (top of the series) unless noted; note: nearly all actives have a fitted effect of over 50% in size; note: potency is the fitted concentration of half-maximal effect
Outline: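 HEK293H cells with the PPARd UAS-bla reporter, co-treated 17 h at 37 C with compounds and L165041 (300 nM final), were lysed with CellTiter-Glo. Luminescence indicated viable cell content.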

[11] = qHTS assay to identify small molecule antagonists of the vitamin D receptor (VDR) signaling pathway - cell viability counter screen (AID 743225); conditions: VDR-bla HEK293T viability, CellTiter-Glo luminescence, 16 h; viability change, negative = cytotoxic: at 61 µM (top of the series) unless noted; note: nearly all actives have a fitted effect of over 50% in size; note: potency is the fitted concentration of half-maximal effect
Outline: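 Cytotoxicity counter screen read by CellTiter-Glo luminescence (30 min, room temperature) in the same wells as the VDR-bla antagonist readout. HEK 293T VDR-UAS-bla cells had 16 h at 37C with compound and 3 nM (final) 1-alpha,25-dihydroxyvitamin D3, then 2 h with FRET substrate.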

[12] = qHTS assay for small molecule agonists of the antioxidant response element (ARE) signaling pathway (AID 743202; active = well fitted activation curve with a large enough effect in the signal ratio in the repeat runs, not every such curve was filed as active; inconclusive = weak or mixed curves, or effect the other way; inactive = no such curve, though single readings can be large or run the other way; the % refers to the signal ratio; note: potency is the fitted concentration of half-maximal effect; for activation: % is set by controls: 0 for no effect and ±100 for the full control effect); conditions: HepG2 ARE-bla reporter, beta-lactamase FRET, 16 h; activation: at 73.3 µM (top of the series) unless noted
Outline: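 An ARE-responsive beta-lactamase gene stably integrated in HepG2 cells serves as reporter. After 5 h plating and 16 h compound incubation at 37 C, fluorescence of the B/G FRET substrate was measured.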

[13] = qHTS assay for small molecule agonists of the antioxidant response element (ARE) signaling pathway - cell viability counter screen (AID 743203; calls by dose curve; note: potency is the fitted concentration of half-maximal effect; nearly all actives have a fitted effect of over 55% in size); conditions: ARE-bla HepG2 viability, CellTiter-Glo luminescence, 16 h; viability change, negative = cytotoxic: at 73.3 µM (top of the series)
Outline: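 CellSensor ARE-bla HepG2 cells, 2,000 per well, rested 5 hrs at 37C/5% CO2, then exposed to compound in DMSO for 16 hrs; viability read as CellTiter-Glo luminescence after 30 min at room temperature, in the reporter wells.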

[14] = biological target: Vitamin D3 receptor (Homo sapiens) (UniProt P11473); assay: qHTS assay to identify small molecule antagonists of the vitamin D receptor (VDR) signaling pathway (AID 743223; active = well fitted inhibition curve with a large enough effect in the signal ratio in the repeat runs, not every such curve was filed as active; inconclusive = weak or mixed curves, or effect the other way; inactive = no such curve, though single readings can be large or run the other way; the % refers to the signal ratio; note: % is set by controls: 0 for no effect and ±100 for the full control effect); conditions: VDR-UAS-bla HEK293T, beta-lactamase FRET ratio, 16 h
Outline: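 Antagonist mode: compound added to VDR-bla cells alongside agonist 1alpha,25-dihydroxyvitamin D3 (3 nM final), incubation 16 h at 37C. Read-out is LiveBLAzer FRET fluorescence, 2 h at room temperature.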

[15] = activation: at 62.6 µM (top of the series) unless noted
Tags give direction and shape of the fitted curve or compound fluorescence and quenching.

Chain of UniProt P11473 (P11473 whole entry, looked up): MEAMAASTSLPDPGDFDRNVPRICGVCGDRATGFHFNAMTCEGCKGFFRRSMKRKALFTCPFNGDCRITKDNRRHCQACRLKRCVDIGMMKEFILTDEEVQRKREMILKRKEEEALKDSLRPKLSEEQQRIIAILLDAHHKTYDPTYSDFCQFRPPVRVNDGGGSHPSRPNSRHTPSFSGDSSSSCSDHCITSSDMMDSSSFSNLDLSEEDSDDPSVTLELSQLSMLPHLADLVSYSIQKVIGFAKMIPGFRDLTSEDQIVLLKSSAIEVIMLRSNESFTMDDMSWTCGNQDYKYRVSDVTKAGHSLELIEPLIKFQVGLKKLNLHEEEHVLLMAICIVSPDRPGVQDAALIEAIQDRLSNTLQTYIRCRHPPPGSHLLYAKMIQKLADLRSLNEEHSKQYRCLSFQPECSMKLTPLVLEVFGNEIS
Chain of UniProt Q03181 (Q03181 whole entry, looked up): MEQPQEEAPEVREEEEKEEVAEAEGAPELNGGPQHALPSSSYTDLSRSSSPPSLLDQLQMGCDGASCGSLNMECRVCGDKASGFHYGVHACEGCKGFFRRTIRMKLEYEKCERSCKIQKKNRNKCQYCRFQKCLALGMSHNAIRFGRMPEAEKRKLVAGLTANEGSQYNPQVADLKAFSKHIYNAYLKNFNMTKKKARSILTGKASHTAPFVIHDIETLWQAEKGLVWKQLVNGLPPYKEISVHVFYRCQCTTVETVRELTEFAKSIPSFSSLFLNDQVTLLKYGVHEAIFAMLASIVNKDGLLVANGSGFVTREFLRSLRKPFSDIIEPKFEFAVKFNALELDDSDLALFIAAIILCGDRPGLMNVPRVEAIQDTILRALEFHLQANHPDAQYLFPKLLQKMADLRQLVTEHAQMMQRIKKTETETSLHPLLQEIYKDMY
Chain of UniProt Q96RI1 (Q96RI1 whole entry, looked up): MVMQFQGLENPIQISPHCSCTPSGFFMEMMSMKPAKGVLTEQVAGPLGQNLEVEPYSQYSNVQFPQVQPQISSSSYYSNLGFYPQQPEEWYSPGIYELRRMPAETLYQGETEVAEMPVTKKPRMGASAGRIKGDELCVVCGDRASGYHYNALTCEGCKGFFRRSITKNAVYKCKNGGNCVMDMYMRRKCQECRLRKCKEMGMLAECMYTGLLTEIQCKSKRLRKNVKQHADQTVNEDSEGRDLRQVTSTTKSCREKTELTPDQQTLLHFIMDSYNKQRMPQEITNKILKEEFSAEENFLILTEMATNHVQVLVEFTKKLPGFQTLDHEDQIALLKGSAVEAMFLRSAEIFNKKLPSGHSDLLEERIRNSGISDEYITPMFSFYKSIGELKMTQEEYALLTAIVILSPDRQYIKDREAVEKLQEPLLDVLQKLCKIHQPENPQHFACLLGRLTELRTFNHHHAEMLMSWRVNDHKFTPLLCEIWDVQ

## CC(C)(c1cc(Br)c(O)c(Br)c1)c1cc(Br)c(O)c(Br)c1
[1]
  Potency: active: 54.8 µM and active: 43.5 µM and active: 46.3 µM
[2]
  Potency: inconclusive: 56.9 µM and inconclusive: 48.9 µM and inconclusive: 20.7 µM
[3]
  Potency: inconclusive: 54.8 µM [cytotoxic, single point] and inconclusive: 52 µM [cytotoxic, single point]
[4]
  Potency: inconclusive: 48.8 µM [rising, partial curve, poor fit] and inconclusive: 61.5 µM [rising, partial curve, poor fit]
  activation: inconclusive: -4.04%
[5]
  Potency: inconclusive: 61.4 µM [inhibitor, single point] and inconclusive: 61.5 µM [single point] and inconclusive: 58.3 µM [inhibitor, single point]
[6]
  Potency: inconclusive: 54.8 µM [cytotoxic, single point] and inconclusive: 61.5 µM [cytotoxic, single point]
[7]; [15]
  activation: inconclusive: 7.28%
[7]; at 62.6 µM (top of the series)
  activation: inactive: -1.52% and inactive: 2.85%
[8]
  Potency: inconclusive: 54.8 µM [falling, single point]
[9]
  Potency: inconclusive: 61.4 µM [cytotoxic, single point] and inconclusive: 54.8 µM [cytotoxic, single point] and inconclusive: 52 µM [cytotoxic, single point]

## Clc1ccc2c(c1)C(N1CCNCC1)=Nc1ccccc1O2
[4]
  activation: inconclusive: 0.845%
[10]
  Potency: active: 2.19 µM
[6]
  Potency: active: 38.9 µM and inconclusive: 26.6 µM [cytotoxic, partial curve, poor fit]
[9]
  Potency: inconclusive: 2.19 µM [cytotoxic, full curve] and inconclusive: 7.5 µM [cytotoxic, single point]
[11]
  Potency: active: 49 µM

## C=C(C)C(=O)OCCCCCCCCCCCC
[12]
  activation: inconclusive: -18.6%

## O=C(O)c1ccc([N+](=O)[O-])cc1
[10]
  Potency: inactive
[11]
  Potency: inactive

## Oc1ccc(Cl)cc1C1CCCC1
[12]
  Potency: inconclusive: 61.1 µM
[13]
  Potency: inconclusive: 77 µM [cytotoxic, single point]
[2]
  Potency: inactive
[5]
  ratio activity, negative = inhibition: inconclusive: 3.85%
[7]; [15]
  Potency: inactive
[11]
  Potency: inconclusive: 49 µM [cytotoxic, partial curve, poor fit]

## CCCCCCCCCCCCOCC1CO1 (configuration not stated)
[7]; [15]
  Potency: inactive
[14]; at 61 µM (top of the series)
  activity change, negative = inhibition: inconclusive: 21.8%
[14]; at 78.8 µM (top of the series)
  activity change, negative = inhibition: inconclusive: 16.1%

## CCN(CC)CCOC(=O)C1(C2CCCCC2)CCCCC1
[12]
  Potency: inactive
[3]
  Potency: inconclusive: 33.5 µM [cytotoxic, single point]

## OC[C@@H](O)[C@H](O)[C@H](O)[C@@H](O)CO
[12]
  Potency: inactive
[14]; activity change, negative = inhibition: at 61 µM (top of the series) unless noted
  activity change, negative = inhibition: inconclusive: -5.49%
